# Source: paper PMC4336329 (PLoS ONE, 2015)
# The whole screen tested about 310,000 compounds, of which about 14,000 (4.5%) showed an effect of 50% or more. Effects have a minus sign here. Some of the results follow.
# Molecular target: human ether-à-go-go-related gene (hERG) potassium channel (human, UniProt Q12809)
# Experiment: primary screen, population patch clamp on CHO cells stably expressing hERG
# 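Also: peak tail current of the secondary pulse compared with the same well before compound.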
# human ether-à-go-go-related gene (hERG) potassium channel, sequence (Q12809 whole entry, looked up): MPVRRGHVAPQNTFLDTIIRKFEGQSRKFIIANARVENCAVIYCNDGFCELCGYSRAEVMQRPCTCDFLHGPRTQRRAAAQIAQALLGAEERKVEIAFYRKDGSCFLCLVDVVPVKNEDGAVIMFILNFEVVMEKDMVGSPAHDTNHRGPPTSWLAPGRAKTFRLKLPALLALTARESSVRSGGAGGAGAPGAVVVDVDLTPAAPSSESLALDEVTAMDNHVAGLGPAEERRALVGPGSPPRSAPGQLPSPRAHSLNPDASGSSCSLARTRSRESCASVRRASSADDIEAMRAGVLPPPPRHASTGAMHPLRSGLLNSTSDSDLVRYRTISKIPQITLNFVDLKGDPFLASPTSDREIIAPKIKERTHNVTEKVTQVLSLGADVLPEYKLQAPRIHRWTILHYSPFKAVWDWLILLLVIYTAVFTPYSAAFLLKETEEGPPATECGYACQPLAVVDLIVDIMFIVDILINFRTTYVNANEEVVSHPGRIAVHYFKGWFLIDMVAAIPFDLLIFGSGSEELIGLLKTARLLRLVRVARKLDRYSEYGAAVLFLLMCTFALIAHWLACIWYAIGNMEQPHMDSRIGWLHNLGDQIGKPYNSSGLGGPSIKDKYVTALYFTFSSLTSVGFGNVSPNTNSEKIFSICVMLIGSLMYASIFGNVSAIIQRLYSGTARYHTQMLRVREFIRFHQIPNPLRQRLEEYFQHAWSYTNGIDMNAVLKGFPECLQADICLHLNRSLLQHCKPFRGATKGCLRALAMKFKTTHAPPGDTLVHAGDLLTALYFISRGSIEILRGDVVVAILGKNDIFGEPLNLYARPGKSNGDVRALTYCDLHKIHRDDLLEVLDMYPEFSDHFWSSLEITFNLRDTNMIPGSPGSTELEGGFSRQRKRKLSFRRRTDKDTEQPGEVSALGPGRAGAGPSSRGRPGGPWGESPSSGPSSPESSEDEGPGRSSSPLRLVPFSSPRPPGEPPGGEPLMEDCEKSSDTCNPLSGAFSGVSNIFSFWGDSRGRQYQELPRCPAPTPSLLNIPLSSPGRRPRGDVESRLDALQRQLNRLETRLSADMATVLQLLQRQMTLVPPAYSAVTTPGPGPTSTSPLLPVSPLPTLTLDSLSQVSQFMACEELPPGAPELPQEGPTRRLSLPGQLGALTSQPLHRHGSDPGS
row,Compound,"hERG current change (%, negative = inhibition) at 10uM"
1,Cc1cc(C(=O)COC(=O)CNC(=O)c2ccccc2)c(C)n1CC1CCCO1 (stereo not drawn),6.64%
2,CC1CC2(C)Oc3ccccc3C3OCC1(CO)C(C)C32 (stereo not drawn),5.07%
3,COc1ccc(C(=O)N/C=C/n2cnc3cc(C(F)(F)F)ccc32)cc1,-9.71%
4,CCN(CC)CCn1c2c(c(SCC(=O)Nc3cc(C)ccc3C)nc1=O)CCC2,-61%
5,CC(C)CC1(C)NC(=O)N(CCN2C(=O)c3ccccc3C2=O)C1=O (stereo not drawn),19.7%
6,CCCc1nn(C)c(C(=O)Nc2ccc(Cl)cc2)c1Cl,10.2%
7,Cc1ccc(C(=O)CC(=O)c2ccc(C)cc2O)cc1,19.3%
8,COc1cccc(/C=c2\s/c(=C/C(=O)c3ccc(C)cc3)[nH]c2=O)c1OC,-7.42%
9,CCOc1ccc(CCNC(=O)COc2cccc(-n3cnnn3)c2)cc1OCC,-23.1%
10,COc1ccc(C2C3=C(CCCC3=O)Nc3ccc4ncccc4c32)cc1OC (stereo not drawn),-25.7%
11,COC(=O)C1=C(c2cc3ccccc3o2)C[C@@H]2CC[C@H]1N2C(=O)N1CCC(C)CC1,-1.39%
12,CCCCN(CCCC)c1ncnc2nc[nH]c12,-21.8%
13,Cc1ccc(NC(=O)CSc2nc(=O)cc(N)n2-c2ccccc2)cc1,20.3%
14,CSc1nc2c(cc1C#N)CCCCC2,7.65%
15,CCOCCCNC(=O)c1ccccc1SC,-4.87%
16,C=CCN=C(NC#N)SCc1ccccc1,13.2%
17,Nc1c(NCCN2CCOCC2)c2ccccc2oc1=O,7.96%
18,O=C(Nc1cccc2ccccc12)c1cnccn1,-4.09%
19,Nc1cccc(C(=O)OCC(=O)Nc2cccc3c2C(=O)c2ccccc2C3=O)c1,10.9%
20,O=C(CNC(=O)c1ccc(Br)o1)Nc1ccncc1,-0.198%
21,Cc1sc(-c2c(C#N)c(N)nc3c2CCCCCC3)cc1[N+](=O)[O-],-4.1%
22,O=C(CSc1n[nH]c(-c2cccs2)n1)NC1CCS(=O)(=O)C1 (stereo not drawn),-6.81%
23,Cc1ccccc1Cn1c(C(C)O)nc2ccccc21 (stereo not drawn),4.7%

row,Compound,"hERG current change (%, negative = inhibition) at 10uM"
1,CC1CCN(CC(=O)Nc2ccc(S(=O)(=O)N3CCCCC3)cc2)CC1,-17.6%
2,Cc1cccn2c(=O)c(C=C(C#N)C#N)c(N3CCN(c4cccc(Cl)c4)CC3)nc12,13.3%
3,CCOC(=O)C1=C(C)NC(=O)NC1c1ccc(Br)s1 (stereo not drawn),-3.07%
4,COc1cc(C(=O)CSc2nncn2C)cc(OC)c1OC,6.63%
5,Cc1ccccc1OCC(=O)N/N=C/c1cccn1C,7.04%
6,O=C(CNCCC1=CCCCC1)Nc1ccc(N2CCCCCC2)cc1.O=C(O)C(=O)O,-32%
7,COc1cccc(CN2CCN(C(=O)c3cccc4ccccc34)CC2)c1.O=C(O)C(=O)O,-12%
8,CCN(CC)c1nc(N)c2c(N)nc3c(c2c1C#N)CC(c1ccccc1)O3 (stereo not drawn),-6.07%
9,CC1CN(C(=S)Nc2ccccc2C(F)(F)F)CC(C)O1 (stereo not drawn),-36.3%
10,CC/C(=N\NC(=S)Nc1cccc(C)c1)c1ccccc1,-4.73%
11,CCOc1ccc(Br)cc1S(=O)(=O)NCCN(C)C,7.6%
12,COC(=O)Nc1nc2ccc(Sc3ccccc3)cc2[nH]1,18.5%
13,COC(=O)c1ccc(NC(=O)C2CCN(C(=O)Nc3ccccc3)CC2)cc1,-10%
14,CCOC(=O)C(c1ccccc1)N1CCN(c2ccc(OC)cc2)CC1 (stereo not drawn),4.91%
15,O=S(=O)(Nc1ccc2c(c1)OCO2)c1cccs1,-0.368%
16,COc1ccc(Cc2nnc(NC(=O)c3ccccc3F)s2)cc1,17.3%
17,COc1ccc(-n2c(-c3ccccc3)cc3c2CCCC3=O)cc1,-47.6%
18,C[C@H](N)c1nnc(SCc2c(Cl)cccc2Cl)o1.Cl,1.5%
19,CON/C=N/C(=S)Nc1ncc(C(F)(F)F)cc1Cl,7.28%
20,CC(=O)C(C(C)=O)c1cc(NS(=O)(=O)c2ccccc2)ccc1NS(=O)(=O)c1ccccc1,-10.5%
21,O=C(CSc1ccc(Br)cc1)NC1CCS(=O)(=O)C1 (stereo not drawn),5.33%
22,CCOC(=O)C1CCCN(C2=NC(=O)/C(=C/c3ccc(O)c(OC)c3)S2)C1 (stereo not drawn),-43.5%
